Results reported in PubChem BioAssay AID938 (National Center for Advancing Translational Sciences (NCATS), 2007).
In all, about 73,000 compounds went through this assay and about 1,800 (2.5%) were called active. The inconclusive results got no clear call from the source; some entries with a clear call stand among them for comparison. Calls come from the whole dose curve; as a rule, active = well fitted activation curve with a large enough effect; inconclusive = small, poorly fitted or top-dose-only effect; inactive = no such curve, though single readings can be large or run the other way. Potencies of inconclusive entries are left out as doubtful fits.

Test: qHTS Assay for Agonists of the Thyroid Stimulating Hormone Receptor: Activators of Intracellular cAMP Concentrations in Parental HEK 293; note: nearly all actives have a fitted effect of over 55% in size; for activation: % of control where 0% means no effect
Conditions: parental HEK293 CNG cAMP sensor, membrane potential fluorescence; activation: at 57.1 µM (top of the series) unless noted
Procedure, shortened: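 Parental HEK 293 cells stably expressing a cAMP-gated CNG channel were loaded with membrane potential dye containing 100 uM RO 20-1724 for 60 min. Compound added for 30 min; depolarization read as fluorescence intensity at 590 nm.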
Potency is the fitted concentration of half-maximal effect; tags give direction and shape of the fitted curve.

Row | Structure (SMILES) | Potency | activation
1 | COc1ccc(C(C)=O)cc1COC(=O)c1cccc(N(C)C)c1 | inconclusive [activator, single point] | 
2 | O=S(=O)(Nc1nccs1)c1ccc(NS(=O)(=O)c2cccs2)cc1 |  | inactive: 1.91%
3 | CCc1nc2ccccc2n1Cc1ccccc1OC | inconclusive [activator, partial curve] | 
4 | O=C(c1ccco1)N1CCC(c2nc(-c3ccc(F)cc3)no2)CC1 | active: 20 µM | 
5 | COc1ccc(-c2noc(-c3ccccc3C(=O)Nc3cccnc3)n2)cc1 | inconclusive [activator, partial curve] | 
6 | COCCCNC(=O)CSc1nc2ccc(N3CCOCC3)cc2c(=O)n1CCc1ccccc1 |  | inactive: 3.65%
7 | c1ccc(Cn2nnc3c(N4CCN(Cc5ccc6c(c5)OCO6)CC4)ncnc32)cc1 | inconclusive [activator, single point] | 
8 | O=C(c1ccco1)N(CC1CCCO1)c1nc(-c2ccccc2)cs1 (stereo not given) | inconclusive [activator, partial curve] | 
9 | CCOC(=O)C1=C(C)NC2=C(C(=O)c3ccccc32)C1c1cccnc1 (stereo not given) |  | inactive: -26.3%
10 | CCN(CC)S(=O)(=O)N1CCC(C(=O)NC(C)CCc2ccccc2)CC1 (stereo not given) | inconclusive [activator, partial curve] | 
11 | COc1cc2cc(C(c3nnnn3Cc3ccc(F)cc3)N3CCCCCC3)c(=O)[nH]c2cc1OC (stereo not given) | inconclusive [activator, single point] | 
12 | Cc1cc(NC(=O)CSc2nnc(-c3ccco3)o2)no1 | inconclusive [activator, single point] | 
13 | COc1ccc(OC(=O)CCCN2C(=O)c3ccccc3C2=O)cc1 |  | inactive: 4.62%
14 | C=CCNCc1cccn1-c1sc2c(c1C#N)CCCC2 | inconclusive [activator, partial curve] | 
15 | N#Cc1ccccc1NC(=O)c1ccccc1OCC(=O)NCc1ccco1 |  | inactive: 11.3%
16 | C=CCSc1nnc(-c2ccccc2NC(=O)CC)c(=O)[nH]1 | inconclusive [activator, single point] | 
17 | Cn1cc(C2=C(c3cn(CCCSC(=N)N)c4ccccc34)C(=O)NC2=O)c2ccccc21 |  | inactive: -44.2%
18 | O=C(NCc1cccnc1)c1ccccc1Br | inconclusive [activator, single point] | 
19 | CCOc1ccc(NC(=O)CSc2nnc(-c3ccccn3)n2N)cc1 | inconclusive [activator, single point] | 
20 | CC[C@@H]1OC(=O)[C@H](C)[C@H](O[C@@H]2C[C@](C)(OC)[C@H](O)[C@H](C)O2)[C@H](C)[C@H](O[C@@H]2O[C@@H](C)C[C@@H](N(C)C)[C@@H]2O)[C@](C)(O)C[C@H](C)C(=O)[C@H](C)[C@H](O)[C@]1(C)O | inconclusive [activator, single point] | 
21 | Cc1ccc(NC(=O)CC2NCCNC2=O)cc1 (stereo not given) | inconclusive [activator, single point] | 
22 | COc1ccc(C(C)=O)cc1CSc1nc2ccccc2o1 | active: 25.1 µM | 
23 | COc1cccc(-c2ccc3ncnc(NCc4cccs4)c3c2)c1 | inconclusive [activator, full curve, poor fit] | 
24 | CCN1CCN(c2cc(C)c3cc(NC(=O)c4ccc5c(c4)OCO5)ccc3n2)CC1 |  | inactive: 3.69%
25 | c1ccc(-c2csc3nnc(SCc4ccc5c(c4)OCCO5)n23)cc1 | inconclusive [activator, single point] | 

Row | Structure (SMILES) | Potency | activation
26 | COCCn1c(=O)c(-c2ccc(Cl)cc2)nc2cnc(N(C)C)nc21 | inconclusive [activator, single point] | 
27 | C=CCNc1ncnc2c1ncn2C1OC(CO)C(O)C1O (stereo not given) | inconclusive [activator, single point] | 
28 | COc1cc(C(=O)Nc2nc3ccccc3[nH]2)cc(OC)c1OC |  | inactive: -4.16%
29 | COc1ccc(C(=O)CSc2nnc(-c3ccc(C)cc3)o2)cc1 | inconclusive [activator, partial curve] | 
30 | COC(=O)Cc1c(C)c2ccc(OC(=O)c3ccco3)cc2oc1=O |  | inactive: 11.7%
31 | O=C(Nc1nccs1)c1ccc(COc2ccc(Cl)cc2)o1 | inconclusive [activator, single point] | 
32 | COc1ccc(OC2C=CC(C#Cc3ccc(F)cc3F)OC2CO)cc1 (stereo not given) | inconclusive [activator, single point] | inactive: 18% [at 11.4 µM]
33 | O=S(=O)(c1ccccc1S(=O)(=O)N1CCCCC1)N1CCCCC1 | inconclusive [activator, single point] | 
34 | COCCNC(=O)c1cc2c(-c3ccccc3F)nn(C)c2s1 | inconclusive [activator, single point] | 
35 | CCS(=O)(=O)NCC(c1cccnc1)N1CCN(c2ccc(F)cc2)CC1 (stereo not given) |  | inactive: 3.6%
36 | COc1ccc(-n2ncc3c(NCc4ccco4)ncnc32)cc1 |  | inactive: 4.58% [at 11.4 µM]
37 | Cc1cnc(N)c2c(=O)oc3ccccc3c12 |  | inactive: -0.999%
38 | COc1ccc(OC)c(NC(=O)CSc2nnc(CNc3ccc(F)cc3)o2)c1 | inconclusive [activator, single point] | 
39 | COC(=O)c1ccccc1NC(=O)CSc1nc2ccccc2c(=O)[nH]1 | inconclusive [activator, single point] | 
40 | COCC(=O)NCc1ccc2c(c1)OCO2 |  | inactive: 13%
41 | CC(C)OC(=O)CSc1nnc(Cc2ccccc2)n1Cc1ccco1 | active: 5.01 µM | 
42 | COc1cccc(-n2nnnc2SCC(=O)Nc2cccc(C)n2)c1 | active: 25.1 µM | 
43 | COc1ccccc1N1CCN(C(c2ccc(Cl)cc2)c2nnnn2C(C)(C)C)CC1 (stereo not given) | active: 2 µM | 
44 | CCOC(=O)C1CCN(C(c2cccc(OC)c2)c2sc3nc(C)nn3c2O)CC1 (stereo not given) | inconclusive [activator, single point] | 
45 | O=C(Nc1ccccc1-c1ccccc1)NC1CCN(C(=O)N2CCOCC2)CC1 | inconclusive [activator, single point] | 
46 | Cc1noc(C)c1-c1ccc2ncnc(N(C)Cc3ccco3)c2c1 | inconclusive [activator, single point] | 
47 | Cc1nc(SCC(=O)Nc2ccccc2)c2oc3ccccc3c2n1 |  | inactive: 27.2%
48 | O=C(O)CCN1C(=O)c2ccccc2C1=O |  | inactive: 2.38%
49 | CC1(C)CCC(NC(=O)[C@H](N)CCC(=O)O)CC1 |  | inactive: 4.43%
50 | COC(=O)C1=CNC=C(C(=O)OC)C1c1ccccc1Cl |  | inactive: 1.83%

Row | Structure (SMILES) | Potency | activation
51 | O=C(OCc1ccccc1F)c1ccc2c(c1)OCCO2 | inconclusive [activator, single point] | 
52 | O=C(Cn1ncc2c(=O)oc3ccccc3c21)N(Cc1ccco1)C1CCCCC1 | inconclusive [activator, partial curve] | 
53 | O=C(COC(=O)c1cccs1)c1ccc2c(c1)OCCO2 |  | inactive: 13.9%
54 | COC(=O)C1=C(C)NC(=O)NC1c1cc(Cl)ccc1OC (stereo not given) |  | inactive: -2.08%
55 | COc1ccc(NC(=O)Nc2cc(C)ccn2)cc1 |  | inactive: 6.95%
56 | COc1ccccc1C(=O)NC(C)c1nc2ccccc2[nH]1 (stereo not given) | inconclusive [activator, single point] | 
57 | COc1ccc(OCCSc2ncccn2)cc1 |  | inactive: 8.46%
58 | CCOc1cc(C(=O)OCC(=O)NCc2ccco2)cc(OCC)c1OCC | inconclusive [activator, single point] | 
59 | Clc1ccc(OCc2nnc(SCCN3CCCCC3)n2Cc2ccco2)cc1 | inconclusive [activator, single point] | 
60 | C=C(C)COc1ccc2c(C)c(C)c(=O)oc2c1OCC(=C)C | inconclusive [activator, single point] | 
61 | Cc1nc2sc(C(c3ccco3)N3CCN(c4ccccc4)CC3)c(O)n2n1 (stereo not given) | inconclusive [activator, single point] | 
62 | O=C(O)c1cc(S(=O)(=O)NCc2ccco2)c(Cl)cc1Cl | inconclusive [activator, single point] | 
63 | COc1ccc(Oc2ncc3nc(CCc4ccccc4)c(=O)n(C[C@H]4CCCO4)c3n2)cc1 | active: 10 µM | 
64 | CSCCC(NC(=O)C1CC1)c1nc2ccccc2[nH]1 (stereo not given) | inconclusive [activator, single point] | 
65 | CN(C)C=Nc1ncc2c3ccccc3n(Cc3ccccc3)c2c1C#N | active: 31.6 µM | 
66 | c1ccc(CNc2nc(-c3cccnc3)nc3ccccc23)cc1 | inconclusive [activator, single point] | 
67 | CCC(C)(C)n1nnnc1C(c1cccc(C#N)c1)N1CCN(c2cccc(C)c2C)CC1 (stereo not given) | inconclusive [activator, full curve] | 
68 | Cc1cc(C(=O)COC(=O)C2=COCCO2)c(C)n1-c1ccc2c(c1)OCO2 | inconclusive [activator, single point] | 
69 | Cc1noc(C)c1-c1nccc(NCCN2CCOCC2)n1 |  | inactive: -4.95%
70 | Cc1ccc(C)c(Cn2c(C(C)O)nc3ccccc32)c1 (stereo not given) |  | inactive: 17.9%
71 | OC[C@@H]1O[C@@H](n2cnc3c(NCCc4ccccc4)ncnc32)[C@@H](O)[C@H]1O | inconclusive [activator, single point] | 
72 | O=S(=O)(NCCc1csc(-c2cccnc2)n1)c1cccs1 | inconclusive [activator, single point] | 
73 | CC(=O)OCC(=O)[C@@]1(O)CC[C@@H]2[C@H]3CCC4=CC(=O)C=C[C@]4(C)[C@]3(F)[C@@H](O)C[C@@]21C |  | inactive: -1.34% [at 25.6 µM]
74 | COc1ccc2nc(N3CCC(C)CC3)c(C#N)cc2c1 |  | inactive: 10.7%
